According to the supplement of paper PMC10126150:
Values marked as one replicate rest on one cluster of the flow cell; about a third of the high ones do not repeat.

Each sequence was assayed on ATP (assay: switch fluorescence ratio, 500 uM ATP over buffer (Cy3 cluster intensity, sum of 5 cycles each) (fold (ratio)); higher = stronger signal-on switching upon ATP binding; sequences stand for … in TCGTCGGCAGCGTCAGATGTGTATAAGAGACAGTTTTTTTTTTTTTTTTTTTTTTTTT…TC). Conditions: aptamer strand: ATP DNA aptamer (quencher-CACCTGGGGGAGTATTGCGGAGGAAGG + anchor), 100 nM annealed; ATP concentration: 500 uM; one replicate.
How it was run: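 Clusters with intensities outside 100-1000 RFU were excluded. The remaining Cy3-labelled switching-strand clusters on a modified Illumina MiSeq flow-cell had been annealed to 100 nM quencher-labelled ATP aptamer and imaged in selection buffer, then after 15 min with 500 uM ATP at 22 °C, for five cycles separated by NaOH stripping and re-annealing. The fluorescence ratio, averaged per switch-domain sequence, is each cluster's summed target-cycle Cy3 intensity over its summed buffer-cycle Cy3 intensity.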
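Further: ATP exposure 15 min at 22 °C before imaging.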

Row | Sequence | switch fluorescence ratio
1 | CGTCAGTCGT | 0.993
2 | CGTCAGTGCG | 0.997
3 | CGTCATAAAA | 1.02
4 | CGTCATCCCG | 1.14
5 | CGTCCAAGAA | 1.07
6 | CGTCCAAGCA | 1.81
7 | CGTCCACCAT | 1.25
8 | CGTCCAGAA | 1.02
9 | CGTCCCAAGT | 1.7
10 | CGTCCGACCC | 2.21
11 | CGTCCGTATA | 3.29
12 | CGTCCTCGGT | 1
13 | CGTCCTGACT | 1.05
14 | CGTCCTGATA | 1.04
15 | CGTCGAATAA | 1.01
16 | CGTCGACGCC | 1.02
17 | CGTCGCGGGG | 0.976
18 | CGTCGCTAAG | 1.08
19 | CGTCGTCAGC | 1.07
20 | CGTCTAGTTG | 0.94
21 | CGTCTATCCG | 1.05
22 | CGTCTATTGG | 1.03
23 | CGTCTGCAGG | 1.12
24 | CGTCTGGATG | 0.986
25 | CGTCTGTGTA | 1.06
26 | CGTGAACCCC | 1.05

Row | Sequence | switch fluorescence ratio
27 | CGTGAAGAGC | 1.01
28 | CGTGACCACA | 1.02
29 | CGTGACCTCG | 1.04
30 | CGTGACGAAC | 1.06
31 | CGTGAGACTG | 0.923
32 | CGTGAGCTGG | 1.01
33 | CGTGAGTATT | 1.01
34 | CGTGAGTTTT | 1.03
35 | CGTGCATCTA | 0.999
36 | CGTGCCACCG | 1.03
37 | CGTGCCCGCG | 1.01
38 | CGTGCGAGCC | 1.09
39 | CGTGCGGGGC | 1.02
40 | CGTGCTGG | 0.971
41 | CGTGCTGTAT | 1.01
42 | CGTGGAAAGC | 1.01
43 | CGTGGAGATC | 1.06
44 | CGTGGCATG | 0.939
45 | CGTGGTTCTT | 0.976
46 | CGTGTAGCAC | 1.13
47 | CGTGTCACCG | 1
48 | CGTGTCATTT | 0.975
49 | CGTGTCGGCC | 1.02
50 | CGTGTGAAA | 1.02
51 | CGTGTGGGTG | 1.04
52 | CGTGTGTCTT | 0.991

Row | Sequence | switch fluorescence ratio
53 | CGTGTGTTTG | 0.974
54 | CGTTAAATCC | 0.987
55 | CGTTAAATTG | 0.983
56 | CGTTAATGGC | 0.982
57 | CGTTAATGGT | 0.975
58 | CGTTAATTC | 1.1
59 | CGTTACCTCA | 1.04
60 | CGTTACGCCA | 1.06
61 | CGTTAGCCGG | 1.03
62 | CGTTAGTTAG | 1
63 | CGTTATAGTT | 1.02
64 | CGTTATTATG | 0.991
65 | CGTTCCACTC | 1.04
66 | CGTTCCTTGA | 1.01
67 | CGTTCGGTGT | 1.01
68 | CGTTCGGTTA | 1.05
69 | CGTTCTTAC | 1.13
70 | CGTTCTTACT | 1.05
71 | CGTTCTTAGT | 0.972
72 | CGTTCTTTGT | 0.995
73 | CGTTGAGGGA | 1.02
74 | CGTTGCCCCT | 0.96
75 | CGTTGCCTAT | 0.973
76 | CGTTGCGTCC | 1.02
77 | CGTTGTTATA | 1.04
78 | CGTTTAATCC | 1.05

Row | Sequence | switch fluorescence ratio
79 | CGTTTATACT | 1.24
80 | CGTTTATCCA | 1
81 | CGTTTCATCA | 0.983
82 | CGTTTCCAGC | 1.07
83 | CGTTTCCCGT | 0.977
84 | CGTTTCGAAC | 0.999
85 | CGTTTCGGAT | 1
86 | CGTTTGGGGC | 0.983
87 | CGTTTGTATG | 1.02
88 | CGTTTTATAT | 1.01
89 | CGTTTTATTT | 0.992
90 | CGTTTTGTGG | 1.01
91 | CGTTTTTTAA | 1.03
92 | CTAAAAAGTA | 0.982
93 | CTAAAAATGT | 1.27
94 | CTAAAAGAAT | 0.956
95 | CTAAACAATT | 0.991
96 | CTAAACGGTT | 0.998
97 | CTAAAGAAGG | 0.974
98 | CTAAAGCAAA | 2.38
99 | CTAAAGTGGT | 0.968
100 | CTAAATGCTT | 0.963
101 | CTAACACGTG | 1.01
102 | CTAACGCTTT | 1.17
103 | CTAACTGACC | 1.12
104 | CTAAGAATCG | 1.11

Row | Sequence | switch fluorescence ratio
105 | CTAAGAATTC | 0.957
106 | CTAAGATTTC | 0.993
107 | CTAAGCAATG | 2.33
108 | CTAAGCGATG | 1.01
109 | CTAAGCGGGG | 1
110 | CTAAGCTTAG | 0.989
111 | CTAAGCTTGC | 0.991
112 | CTAAGGACTC | 0.976
113 | CTAAGGATCA | 1
114 | CTAAGGATTT | 1.03
115 | CTAAGGCCCT | 1.01
116 | CTAAGGCTTC | 1.01
117 | CTAAGTGCGG | 0.995
118 | CTAATCACGG | 1.02
119 | CTAATCGACT | 1.02
120 | CTAATGCAGG | 1.02
121 | CTAATGGACG | 1.01
122 | CTAATGTGTA | 0.979
123 | CTAATTAACG | 0.975
124 | CTAATTACGG | 1.05
125 | CTAATTAGAA | 0.976
126 | CTACAAGCGG | 0.992
127 | CTACATTAAT | 1.07
128 | CTACCACATA | 1.12
129 | CTACCCAGTG | 3.45
130 | CTACGAAACG | 1.11

Row | Sequence | switch fluorescence ratio
131 | CTACGGAATT | 3.21
132 | CTACGGGCTC | 1.2
133 | CTACGGGTTA | 1.05
134 | CTACGGTATG | 1.11
135 | CTACGGTGAT | 1.75
136 | CTACGTTCCT | 1.44
137 | CTACTCCTCA | 1.14
138 | CTAGAAACGC | 0.986
139 | CTAGACTGCC | 1.13
140 | CTAGCACTTC | 1.24
141 | CTAGCCAAGT | 1
142 | CTAGCGAGCC | 0.985
143 | CTAGCGCGCG | 0.931
144 | CTAGCGGCGT | 1.02
145 | CTAGCGGCTT | 1
146 | CTAGCGTATC | 1.03
147 | CTAGCGTGGG | 1.01
148 | CTAGCGTGTA | 1.01
149 | CTAGCTACGT | 1
150 | CTAGCTGTT | 0.982
151 | CTAGGATGTT | 0.979
152 | CTAGGCCGAG | 0.869
153 | CTAGGCCTGA | 0.953
154 | CTAGGGCGAT | 1.02
155 | CTAGGTCTGA | 1
156 | CTAGGTTAGC | 1.06

Row | Sequence | switch fluorescence ratio
157 | CTAGTCAAGC | 1.05
158 | CTAGTCTCGA | 1
159 | CTAGTGGTAC | 1.21
160 | CTAGTTATGG | 1
161 | CTAGTTCGAT | 1.03
162 | CTATAAAGGG | 0.961
163 | CTATACAGTC | 0.994
164 | CTATACGTCT | 0.99
165 | CTATAGCGG | 1.02
166 | CTATATCCGA | 1.01
167 | CTATATGCAA | 1.44
168 | CTATCAACTT | 0.989
169 | CTATCATGGG | 0.989
170 | CTATCCCATG | 1.07
171 | CTATCCGG | 1.02
172 | CTATCCGTTT | 1.02
173 | CTATCGGCTT | 1.07
174 | CTATCTCGTC | 0.981
175 | CTATGAAAG | 0.962
176 | CTATGACCGT | 1.04
177 | CTATGGGAGA | 0.997
178 | CTATGGTGCG | 1.03
179 | CTATGTAAGT | 1.03
180 | CTATGTCCGA | 1
181 | CTATGTGG | 0.966
182 | CTATTCCGCT | 1.35

Row | Sequence | switch fluorescence ratio
183 | CTATTCGGTA | 1.04
184 | CTATTCTGCG | 0.983
185 | CTATTCTGGG | 0.991
186 | CTATTTAATC | 1.04
187 | CTCAAATAAG | 1.03
188 | CTCAAGGTCG | 0.982
189 | CTCAATAT | 1.2
190 | CTCAATATCT | 1.06
191 | CTCAATGATT | 1
192 | CTCACATG | 0.973
193 | CTCACGTGTC | 1.04
194 | CTCACTTGCG | 1.01
195 | CTCAGAGAGA | 0.984
196 | CTCAGATTTG | 1.02
197 | CTCAGCAT | 2.71
198 | CTCAGCGC | 1.05
199 | CTCAGCGGCC | 1.72
200 | CTCAGTGCCG | 1.01
201 | CTCATCAAGT | 1.03
